Source: ChEMBL document CHEMBL4888484, “Replenishing the malaria drug discovery pipeline: Screening and hit evaluation of the MMV Hit Generation Library 1 (HGL1) against asexual blood stage Plasmodium falciparum ,using a nano luciferase reporter read-out” (2022)
About 540 (0.36%) of roughly 150,000 compounds showed an effect of 50% or more. The list shows a part of the results.

System: Plasmodium falciparum
Assay: Primary screen in NF54 nanoGlo assay, in single point, at 2uM, 72h; a lower Z score goes with more inhibition
Type: functional, Erythrocyte
Conditions: timepoint 72 hour

| Structure (SMILES) | % Inhibition [%] | Z score |
| --- | --- | --- |
| CCN(Cc1cccc2cccnc12)c1ccccc1 | -5 | 0.48 |
| O=C1N[C@@](Cc2ccccc2Cl)(C2CCN(C/C=C/c3ccco3)CC2)C(=O)N1CC1CC1 | -11 | 1.42 |
| Cc1cccc2sc(OC3CN(C(=O)c4ccc5[nH]cnc5c4)C3)nc12 | -8 | 0.91 |
| O=C(c1c(F)cccc1Cl)N1CCO[C@H](c2ncon2)C1 | 0 | 0.03 |
| O=C(CCc1ccc2c(c1)CCO2)NC1CCCC1 | 5 | -0.58 |
| C[C@H](NC(=O)Nc1ccc(-c2cc[nH]n2)cc1)c1nc(C2CCCC2)no1 | 2 | -0.26 |
| C=CCCCC(C)NC(=O)N1CCOC(c2nc(C)cs2)C1 (stereo unspecified) | -16 | 2.25 |
| O=C(c1csc2c1CCCC2)N1CCC[C@H](Nc2ccc3c(c2)OCCO3)C1 | 2 | -0.24 |
| CCc1ccc(S(=O)(=O)N(CCN(C)C)Cc2ccccc2F)s1 | -2 | 0.27 |
| NS(=O)(=O)c1ccc(-n2ccnc2-c2cc(-c3ccccc3)no2)cc1 | -16 | 1.47 |
| Cc1c(C(=O)N[C@H](c2cccnc2)c2cc3ccccc3o2)cnn1C | 14 | -2.12 |
| CC(NC(=O)C1CCCN(c2nccn3nc(-c4cccc(Cl)c4)cc23)C1)c1ccccc1 (stereo unspecified) | 2 | -0.26 |
| C[C@H]1Cc2cc(Br)cc3c(=O)c(C(=O)Nc4ccc(F)cc4)cn1c23 | -1 | 0.12 |
| C#CCCC1(CCC(=O)N2Cc3cccnc3C2)N=N1 | 0 | 0.01 |
| CN(CCN(C)C1CC1)C(=O)[C@@H]1CCc2cccnc21 | -9 | 1.54 |
| CC(C)Cc1nc(NC(=O)[C@H]2CC(=O)N(c3n[nH]c4ccccc34)C2)n[nH]1 | -11 | 1.37 |
| COc1ccc(CN2Cc3ccccc3C2=N)cc1OC | 32 | -3.64 |
| CC(C)CC(=O)N1CCC[C@H]1c1cccs1 | -10 | 1.09 |
| CCc1ccc2c(c1)c(-c1ccc(Cl)cc1)c(C(=O)N1CCCCC1)n2C | -8 | 0.97 |
| O=C(NC1CCCCC1)c1nc(Cn2cnc3ccccc3c2=O)no1 | -7 | 0.92 |
| Cn1c(CCN2C[C@@](C)(Cc3ccc4c(c3)OCO4)CCC2=O)n[nH]c1=O | -1 | 0.16 |
| O=C(CCc1cn[nH]c1)N(CC1CC1)C1CCCCC1 | -10 | 1.05 |

| Structure (SMILES) | % Inhibition [%] | Z score |
| --- | --- | --- |
| CC(C)C[C@@H](CN1CCCC1)NC(=O)c1ccon1 | -3 | 0.62 |
| Cc1ccc2c(c1)N(Cc1c(C)noc1C)N=C(C(=O)N1CCOCC1)S2(=O)=O | 10 | -1.29 |
| O=C([C@@H]1CCCCN1S(=O)(=O)c1ccoc1)N1CCOCC1 | -13 | 1.86 |
| C1=CO[C@@H](CN(CCOc2ccccc2)C2CCOCC2)CC1 | 5 | -0.49 |
| CCN(c1cccc(C)c1)[C@@H](C(=O)NC1CCCCC1)c1ccc(C)cc1 | -8 | 1.2 |
| O=C(N[C@@H]1CN(Cc2ccncc2F)C[C@H]1CO)c1cccnc1 | -8 | 1.44 |
| CCCc1nnc(C(=O)N(C)Cc2noc(C)n2)o1 | 5 | -0.9 |
| CC(=O)N1CCC(C(=O)O[C@H]2C[C@@H](C)CC[C@@H]2C(C)C)CC1 | -6 | 0.64 |
| CCN=C(NCc1noc(C)n1)NCc1ccc(C)cc1OC(C)C | -5 | 0.42 |
| C=CCC1(CC=C)CCCCN1C(=O)c1ncc[nH]1 | -10 | 1.99 |
| Cc1noc(C)c1CN(C)C(=O)[C@H]1CCCCN1 | 1 | -0.12 |
| Cc1nc(C)c(C(=O)N2C[C@@H]3C[C@H]2C(=O)N3c2cccc(Cl)c2)o1 | -22 | 2.08 |
| CCC[C@H]1CN(CCOC)C[C@@H]1NC(=O)c1nonc1C | -13 | 1.74 |
| Cc1n[nH]c(C)c1CN(C)C(=O)CCc1ccncc1 | -15 | 2 |
| O=C(CN1C(=O)CNC1=O)NCc1cc(-c2ccccc2)n[nH]1 | -3 | 0.48 |
| COc1ccc(C(=O)N2CC[C@H](OCC3CC3)C2)cc1 | -6 | 0.73 |
| O=C(c1ccc(Br)c(-n2cnnn2)c1)N1CCOCC1 | -16 | 2.29 |
| Cc1cc(C(=O)NC(C)CC2CCCO2)c(F)cc1F (stereo unspecified) | 4 | -0.43 |
| O=C1NCC2(CCN(CCc3cn[nH]c3)CC2)Oc2ccccc21 | -14 | 1.49 |
| CCOc1ccc(C(=O)N2CCn3ccnc32)cc1 | -18 | 2.67 |
| COc1ccc(CN(C(=O)[C@H]2C[C@@H]2C)c2ccncc2)cc1 | -22 | 2.38 |
